Several values for one entry are separate records, joined by “and”; a condition that tells them apart may be missing. Identical values can stand only once. About 820 (0.29%) of roughly 280,000 compounds were called active. Inconclusive results, whose numbers are uncertain, are shown with a selection of clear calls. The call rests on the fitted dose curve; in most records, active means well fitted curve in either direction with a large enough effect; inconclusive means small, poorly fitted or top-dose-only effect; inactive means flat fitted curve, though single readings scatter. Potencies of inconclusive entries are left out as doubtful fits.
assay: Total Fluorescence Counterscreen for Inhibitors of the Interaction of Thyroid Hormone Receptor and Steroid Receptor Coregulator 2; settings: TRb/SRC2 Texas Red total fluorescence interference; series mostly up to 106 µM
In short: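 Human TRb ligand-binding domain at 0.6 uM with 20 nM Texas Red SRC2 peptide in Tris buffer containing 1 uM T3 and 5% DMSO, incubated with compound 5 h at ambient temperature. Total fluorescence (555/632 nm) calculated as parallel + 2 × perpendicular.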
Potency means the concentration at half of the fitted maximal effect; tags describe the fitted curve by direction and shape or compound fluorescence and quenching.

SMILES | Potency
COC(=O)c1ccccc1NC(=O)c1cc(-c2ccccc2O)no1 | inconclusive [falling, full curve, poor fit]
COc1cc2c(cc1OC)-c1c(O)c(OC)cc3c1[C@H](C2)N(C)CC3 | inconclusive [fluorescent, partial curve]
CN(N=O)c1ccc(O)c(O)c1 | inconclusive [quencher, full curve]
COc1cnc(OC)n2nc(NS(=O)(=O)c3c(OCC(F)F)cccc3C(F)(F)F)nc12 | inactive
O=C1NC(=O)N(c2ccccc2)C(=O)/C1=C\C=C\c1ccccc1 | inactive
CC[C@H](CO)Nc1nc(NCc2ccccc2)c2ncn(C(C)C)c2n1 | inconclusive [fluorescent, partial curve]
CC1N(C)c2cc(NC(=O)c3ccco3)c(P(=O)(Nc3ccc([N+](=O)[O-])cc3)N3CCOCC3)cc2C1(C)C (centres undefined) | inconclusive [fluorescent, full curve]
CCCOCC(=Nc1ccc(Cl)cc1C(F)(F)F)n1ccnc1 | inconclusive [falling, single point]
CCOP(=S)(NC(C)C)Oc1ccccc1C(=O)OC(C)C (centres undefined) | inactive
O=C(O)c1ccccc1-c1c2cc(Br)c(=O)cc-2oc2[c]([Hg])c(O)c(Br)cc12 | active: 28.2 µM [fluorescent] and active: 44.7 µM [fluorescent]
C[C@H]1C[C@@H](C)C(=O)[C@@H]([C@H](O)CC2CC(=O)NC(=O)C2)C1 | inactive
CC(Oc1ccc(Br)cc1)C(=O)N(Cc1nc(-c2ccccc2)no1)C(C)C (centres undefined) | inconclusive [falling, partial curve, poor fit]
N#Cc1cccc(NC(=O)CSc2nc3c(cc2C#N)N2CCC3CC2)c1 | inconclusive [quencher, full curve]
Oc1cccc2nc3ccccc3nc12 | inactive
Cc1c(N=Cc2c(O)n(Cc3ccccc3)c(=O)[nH]c2=O)c(=O)n(-c2ccccc2)n1C | inactive
CC(=O)[C@H]1CCC2C3CC=C4C[C@@H](OS(=O)(=O)O)CC[C@]4(C)C3CC[C@@]21C (some centres undefined) | inconclusive [quencher, full curve]
O=C1NC(=O)N(c2ccccc2)C(=O)/C1=C/c1ccc([N+](=O)[O-])s1 | active: 44.7 µM [fluorescent]
COc1ccc(CNS(=O)(=O)c2cc3c(cc2C)N(C)CCO3)cc1 | inconclusive [falling, partial curve, poor fit]
C[N+]1(C)CCC(OC(=O)C(c2ccccc2)c2ccccc2)CC1 | inconclusive [falling, partial curve, poor fit]

— PubChem BioAssay AID1479 (National Center for Advancing Translational Sciences (NCATS), 2009)
